# Source: a collection of fitness landscapes (doi:10.1126/science.1257360)
# The list shows a part of the results.
# B1: PhoQ; a variant is named by its letters at X, in order, P23837 (parent)
# chain: MKKLLRLFFPLSLRVRFLLATAAVVLVLSLAYGMVALIGYSVSFDKTTFRLLRGESNLFYTLAKWENNKLHVELPENIDKQSPTMTLIYDENGQLLWAQRDVPWLMKMIQPDWLKSNGFHEIEADVNDTSLLLSGDHSIQQQLQEVREDDDDAEMTHSVAVNVYPATSRMPKLTIVVVDTIPVELKSSYMVWSWFIYVLSANLLLVIPLLWVAAWWSLRPIEALAKEVRELEEHNRELLNPATTRELTSLVRNLNRLLKSERERYDKYRTTLTDLTHSLKTPLXXLQXXLRSLRSEKMSVSDAEPVMLEQISRISQQIGYYLHRASMRGGTLLSRELHPVAPLLDNLTSALNKVYQRKGVNISLDISPEISFVGEQNDFVEVMGNVLDNACKYCLEFVEISARQTDEHLYIVVEDDGPGIPLSKREVIFDRGQRVDTLRPGQGVGLAVAREITEQYEGKIVAGESMLGGARMEVIFGRQHSAPKDE
# Variants of: B1
# Assay: enrichment ratio after two sorts for PhoP signalling (ratio (wild type AVST 3.29)); higher = more functional
# Details: with PhoP (E. coli)
row,Variant,enrichment ratio
1,MMIV,≤ 0.25
2,GCYY,≤ 0.25
3,FWLF,≤ 0.25
4,TPYL,≤ 0.25
5,SKPI,≤ 0.25
6,LEFQ,6.2
7,YPTI,≤ 0.25
8,ASES,≤ 0.25
9,WNCC,≤ 0.25
10,MNAG,3.99
11,MTLT,≤ 0.25
12,IKLD,≤ 0.25
13,TMIW,≤ 0.25
14,YAGT,≤ 0.25
15,YGGF,≤ 0.25
16,AVMT,7.67
17,DHGV,≤ 0.25
18,DNTR,≤ 0.25
19,LGTQ,≤ 0.25
20,YADR,≤ 0.25
21,GIAR,4.4
22,LYHR,≤ 0.25
23,YQNC,≤ 0.25
24,KIKY,≤ 0.25
25,NYSR,≤ 0.25

row,Variant,enrichment ratio
1,DDLI,≤ 0.25
2,NQSI,≤ 0.25
3,DSMM,≤ 0.25
4,CVQT,≤ 0.25
5,LNCI,≤ 0.25
6,KVNR,≤ 0.25
7,IPAS,≤ 0.25
8,QYTA,≤ 0.25
9,TRFR,≤ 0.25
10,AMFH,≤ 0.25
11,AVGC,≤ 0.25
12,QYAI,≤ 0.25
13,IVVR,≤ 0.25
14,FGDY,≤ 0.25
15,TMTV,10.6
16,KHKF,≤ 0.25
17,TFCC,3.86
18,WSAQ,≤ 0.25
19,VKRK,≤ 0.25
20,AIFN,≤ 0.25
21,IVTF,≤ 0.25
22,VFLW,≤ 0.25
23,VFQR,≤ 0.25
24,FEWL,≤ 0.25
25,RHMP,≤ 0.25

row,Variant,enrichment ratio
1,HPWI,≤ 0.25
2,IWIW,≤ 0.25
3,QHNM,≤ 0.25
4,GEGS,≤ 0.25
5,VVLS,≤ 0.25
6,NGHM,≤ 0.25
7,PLSF,≤ 0.25
8,QFPG,≤ 0.25
9,TWHF,≤ 0.25
10,FHAY,≤ 0.25
11,RHKG,≤ 0.25
12,HNTC,≤ 0.25
13,KGVT,0.605
14,GKSI,≤ 0.25
15,YYMT,≤ 0.25
16,RIHM,≤ 0.25
17,SDGY,≤ 0.25
18,LRQH,0.346
19,PATQ,≤ 0.25
20,KLFQ,≤ 0.25
21,RYWI,≤ 0.25
22,EAIL,≤ 0.25
23,TLWC,≤ 0.25
24,LCIV,≤ 0.25
25,HSRD,≤ 0.25

row,Variant,enrichment ratio
1,DQWR,≤ 0.25
2,WQFW,≤ 0.25
3,PAIH,≤ 0.25
4,VNGV,≤ 0.25
5,QPWA,≤ 0.25
6,DGIN,≤ 0.25
7,VPQP,≤ 0.25
8,DKWV,≤ 0.25
9,DEQH,≤ 0.25
10,QKRI,≤ 0.25
11,QSPA,≤ 0.25
12,TEIT,1.69
13,YIKV,≤ 0.25
14,PTLD,≤ 0.25
15,PQCQ,≤ 0.25
16,VQWY,≤ 0.25
17,FQYV,≤ 0.25
18,EHIV,≤ 0.25
19,AHVI,≤ 0.25
20,GPVI,≤ 0.25
21,FMNW,≤ 0.25
22,YQRG,≤ 0.25
23,PMRE,≤ 0.25
24,MHPH,≤ 0.25
25,FPKG,0.672

row,Variant,enrichment ratio
1,SMLG,9.08
2,REKM,≤ 0.25
3,SQWY,≤ 0.25
4,TTNK,≤ 0.25
5,GANP,≤ 0.25
6,LWFN,≤ 0.25
7,MIKG,≤ 0.25
8,EHLR,≤ 0.25
9,EPFA,≤ 0.25
10,IVVL,≤ 0.25
11,SEGM,6.17
12,RCTR,≤ 0.25
13,IFMQ,≤ 0.25
14,GQED,≤ 0.25
15,DKQE,≤ 0.25
16,VQWN,≤ 0.25
17,HWPP,≤ 0.25
18,RIHA,≤ 0.25
19,QDCD,≤ 0.25
20,ITHF,≤ 0.25
21,GNFE,≤ 0.25
22,PGFG,≤ 0.25
23,FEYF,≤ 0.25
24,LNRE,≤ 0.25
25,FTRG,≤ 0.25

row,Variant,enrichment ratio
1,ATPY,≤ 0.25
2,IPHI,≤ 0.25
3,SHQW,≤ 0.25
4,WLRY,≤ 0.25
5,IDKP,≤ 0.25
6,VKQY,≤ 0.25
7,PYSM,≤ 0.25
8,RVPK,≤ 0.25
9,HSRY,≤ 0.25
10,RMDL,≤ 0.25
11,VEMP,≤ 0.25
12,RMPN,≤ 0.25
13,VYER,≤ 0.25
14,YHKC,≤ 0.25
15,QNWH,≤ 0.25
16,NWYL,≤ 0.25
17,NIRE,≤ 0.25
18,MARD,≤ 0.25
19,AEVQ,0.317
20,MIWD,≤ 0.25
21,FITG,≤ 0.25
22,YIQK,≤ 0.25
23,RYPK,≤ 0.25
24,IEMP,≤ 0.25
25,RPYN,≤ 0.25

row,Variant,enrichment ratio
1,MHTH,≤ 0.25
2,YKDI,≤ 0.25
3,LRCQ,≤ 0.25
4,FPHG,≤ 0.25
5,RPHP,≤ 0.25
6,ERKS,≤ 0.25
7,IMRN,≤ 0.25
8,PNQQ,≤ 0.25
9,HPLI,≤ 0.25
10,NPWD,6.21
11,LYKT,≤ 0.25
12,VEYS,≤ 0.25
13,SIHW,≤ 0.25
14,NGAM,≤ 0.25
15,NFLI,≤ 0.25
16,DHHL,≤ 0.25
17,YMPS,≤ 0.25
18,YHER,≤ 0.25
19,HRFG,≤ 0.25
20,DLWW,≤ 0.25
21,HVPN,≤ 0.25
22,FGYN,≤ 0.25
23,MMSI,8.62
24,VRIA,≤ 0.25
25,LGKH,≤ 0.25

row,Variant,enrichment ratio
1,PNMT,≤ 0.25
2,FKQV,≤ 0.25
3,MGGL,4.99
4,MHVN,≤ 0.25
5,SLWG,≤ 0.25
6,NGLK,≤ 0.25
7,NGWM,≤ 0.25
8,DAPS,≤ 0.25
9,SPEC,≤ 0.25
10,TIIV,≤ 0.25
11,PMYI,≤ 0.25
12,INGA,≤ 0.25
13,DERE,≤ 0.25
14,MWAA,≤ 0.25
15,FFIF,≤ 0.25
16,LQYQ,≤ 0.25
17,DMHN,≤ 0.25
18,TYPL,≤ 0.25
19,WMMM,≤ 0.25
20,MNPN,≤ 0.25
